Laboratory results from the RNAGym collection of RNA variant scans (doi:10.7554/elife.90254).
Read counts are not given, so values of variants with three or more changes are uncertain.

B1: LINE1-mini (parent)
chain: GGCAGAGCUCAACACAGCGUGGCAAAGUGGCUGUGGCUAGACUGCC

Variants of: B1
Assay: self-cleavage, relative activity (ratio to wild type); higher = more cleavage; in vitro, sequencing; the parent is a self-cleaving ribozyme

Row | Variant | self-cleavage
1 | C18A U28A G33U | 0.04
2 | C18G G36C A41U | 0.02
3 | C18A G35A G44U | 0.01
4 | C18U G33U U34C | 0.02
5 | C18U G35A C37U | 0.1
6 | C18G U28G C37A | 0.06
7 | C18U C23A C45U | 0.94
8 | C18U U28G U32A | 0.06
9 | C18A A24G A39G C45A | 0.11
10 | C18U C37G C42U | 0.02
11 | G17C U20C G22C A26C G29U | 0.16
12 | G17U G22C U28A | 0.14
13 | G17C U38A U43C | 0.01
14 | G17U C23A A25U | 0.07
15 | G17U G44A C46U | 0.04
16 | C18U G29C G40A G44A | 0.01
17 | G17U A24C A39U | 0.19
18 | G17C G27A U32G G33C | 0.05
19 | C18U A25C G33U | 0.03
20 | C18U G21U U32G | 0.09
21 | C18U G29U G35C C46A | 0.05
22 | G17U C31A U34C G36U A39U | 0.03
23 | C18A G35U C37U | 0.06
24 | C18G G22A A26U C31G | 0.13

Row | Variant | self-cleavage
25 | C18U U32C C45G | 0.03
26 | G17U C18A G35A C42U G44A C45U | 0.01
27 | C18U G35C G44C C45A | 0
28 | C18U C23G C42G | 0.03
29 | C18U A26G G40C | 0.03
30 | C18A G35U A41C | 0.06
31 | G17U U34C A39U C46A | 0.05
32 | G17U G27A C31A C45U | 0.78
33 | C18A G19U G33U C37G | 0.02
34 | C18A A26U G35U C42U | 0.07
35 | C18G G33C U38C | 0.01
36 | C18G A24C U32C U38A C46G | 0
37 | G17U U20A G21C U28G C31U | 0.08
38 | G17U G40U U43A | 0.18
39 | C18G A25G C31A | 0.12
40 | C18A G21A U28A G33U G36C | 0.02
41 | G17U G19U G29U A41G | 0.03
42 | C18U G29A G30C | 1.41
43 | C18G U20A G22C | 0.95
44 | C18A A25C C31G A41C | 0.02
45 | C18G G19C C37A C42U C45A | 0.01
46 | C18A G22U G36A | 0.1
47 | G17U G27U G29A | 0.28
48 | G17C U20A C23A U28G | 0.09

Row | Variant | self-cleavage
49 | C18A G21C C46U | 0.18
50 | C18U G19C G44U | 0.07
51 | G17C C31U A41U | 0.03
52 | G17C G22C U32A | 0.03
53 | G17C G21A G44C | 0.03
54 | C18G A26U U43G | 0.03
55 | C18U G21U G35U | 0.05
56 | C18G G19C C37U | 0.79
57 | C18A G19U U28G | 0.22
58 | G17U U28A G30C C37U C42U | 0.15
59 | G17U G19U U34C | 0.02
60 | G17C G27C G35A A39C | 0.04
61 | C18G C23U G29C G30A G44U | 0.17
62 | C18A A26U A41G | 0.09
63 | G17U U28C G30A G35A | 0.07
64 | G17U C18U G22U C31U | 0.02
65 | C18U U20A G27U G33A | 0.03
66 | C18G U28A G36C C45G | 0.01
67 | C18A U32A U38G C46A | 0.02
68 | C18G G22U G36C | 0.02
69 | C18U G19U G21U | 1.55
70 | C18G G21U U28G G35U | 0.01
71 | G17U A26G G40A A41U | 0.03
72 | G17U U20C A25U | 0.35

Row | Variant | self-cleavage
73 | G17U U20C A25C | 0.07
74 | C18A G33C C45A | 0
75 | G17U G21A G40U C46A | 0.04
76 | G17U G29C A41U | 0.29
77 | G17U A24U A26U U43A | 0.09
78 | C18A A26G U28G U32C G44C | 0.02
79 | C18A G29A C37G C46A | 0.08
80 | G17C G22A C42G | 0.02
81 | G19A C23A U32G | 0.21
82 | C18U U34G G40U | 0.03
83 | C18U A26C U38A | 0.45
84 | C18A G22U A24U A26U | 1.62
85 | G19A A25C U28C G30A | 0.37
86 | C18U G21A G30C G36U | 0.07
87 | C18A G21U G33C | 0.01
88 | C18A G19A A26U C42A | 0.08
89 | C18G U20A C31U C46A | 0.05
90 | C18G G22C C23A G40C | 0.07
91 | C18A C23A A26U | 0.38
92 | C18U G21U G27C G44C | 0.15
93 | G17C G21C G30A | 0.21
94 | C18A A24G U28C | 0.53
95 | C18U U20G G44A | 0.05
96 | G17U G35A U38A A41G | 0.02

Row | Variant | self-cleavage
97 | G17U C23A C45U | 0.09
98 | C18G C31U G36A C37A | 0.02
99 | G17U C23G U32A G33A | 0.05
100 | G17U A24U A25U C31G | 1.22
101 | G17C C37G C46A | 0.03
102 | C18G A24C U38C | 0.07
103 | G19A A26C C37A U38C G44A | 0.07
104 | G17C G29A G30A U34C | 0.15
105 | G17U U20G U43A | 0.17
106 | C18U A24U A26G G40U | 0.03
107 | C18A C45U C46G | 0.03
108 | G17U G30U G35A A41C | 0.02
109 | G17U U20A C42U | 0.02
110 | G19A C23A G36U C42A G44A | 0.12
111 | C18A A25U G30A C31U G33C C42U | 0.04
112 | G17C G19A U20A G21U | 0.62
113 | C18G U28A G29A C31U | 0.04
114 | C18G C23G G29U G44U | 0.02
115 | C18G G21C A26U | 0.48
116 | C18G U34C G35A G40U | 0.04
117 | C18U G22A C23G G35U | 0.03
118 | C18G A25G A26C | 0.02
119 | C18G C31U G36U | 0.05
120 | C18A G27C U38C C46G | 0

Row | Variant | self-cleavage
121 | G17C G33U U38G C45G C46G | 0.02
122 | C18A G19U G35A | 0.04
123 | C18A G21U U28C G40A | 0.08
124 | C18U G29U A41U | 1.36
125 | G17U C31A U32G | 0.06
126 | C18G G30A U34G | 0.11
127 | G17C G19C C23U C31A C42A | 0.06
128 | C18G G35U G36U | 0.02
129 | G17U A26G C46G | 0.05
130 | C18G U32G G33U C46G | 0.04
131 | C18U G29C U34A C37G | 0.01
132 | C18U U20G G35U U43C | 0.02
133 | G19A A39U A41U | 0.67
134 | G17U U34A G35U | 0.06
135 | G17U C23A C31A | 0.21
136 | C18A G27U G30U | 1.79
137 | C18G G30C C31A C37U C46U | 0.01
138 | C18A G35C G36U C45A | 0.01
139 | C18A U20G C23A C31U U38A C46G | 0.01
140 | C18U G21A G22A C23G A25U A26G U38C | 0.14
141 | C18G U20A A25U G30C | 0.16
142 | G17U A25C G33A C37U | 0.06
143 | G17C C23A C31U G36C G44U | 0
144 | C18A C23A G29U G33A | 0.02

Row | Variant | self-cleavage
145 | C18U C31U G35A | 0.02
146 | C18U C31U G35C | 0.05
147 | C18U G22U G36C | 0.05
148 | C18U A25C C31U | 0.05
149 | G17U C18A G21U U43C | 0.01
150 | C18A U20A G21U | 0.17
151 | G17U C31A U34A G36C | 0.02
152 | G17U U34G A41C | 0.06
153 | C18A A25C U38C | 0.11
154 | C18A A24G A41U | 0.15
155 | C18U G27U C31A | 0.57
156 | C18A U34G A41U | 0.04
157 | C18G U32G G35A G44U C45A | 0.02
158 | G17U A24C U34G | 0.05
159 | C18A U20A A24G | 0.12
160 | G17U G19A G44A | 0.09
161 | G17C G21A C37G | 0.06
162 | G17U U32A U38C | 0.02
163 | G17U G21U U34G G35U G40U | 0.03
164 | C18U C23A G33A G35U G40C C46G | 0.01
165 | C18A C23G G29U G30A | 1.24
166 | C18G A24C C45U | 0.16
167 | C18A U20C G35C | 0.01
